# In the supplement of paper PMC3334620:
# The full ranking holds about 33,000 sequences; the median of “E-score (-0.5 to 0.5)” is about -0.016, and the highest 2% start at about 0.32. Some of the results follow.
# Target: T1, Stp1 (UniProt B3LFK1)
# T1 sequence: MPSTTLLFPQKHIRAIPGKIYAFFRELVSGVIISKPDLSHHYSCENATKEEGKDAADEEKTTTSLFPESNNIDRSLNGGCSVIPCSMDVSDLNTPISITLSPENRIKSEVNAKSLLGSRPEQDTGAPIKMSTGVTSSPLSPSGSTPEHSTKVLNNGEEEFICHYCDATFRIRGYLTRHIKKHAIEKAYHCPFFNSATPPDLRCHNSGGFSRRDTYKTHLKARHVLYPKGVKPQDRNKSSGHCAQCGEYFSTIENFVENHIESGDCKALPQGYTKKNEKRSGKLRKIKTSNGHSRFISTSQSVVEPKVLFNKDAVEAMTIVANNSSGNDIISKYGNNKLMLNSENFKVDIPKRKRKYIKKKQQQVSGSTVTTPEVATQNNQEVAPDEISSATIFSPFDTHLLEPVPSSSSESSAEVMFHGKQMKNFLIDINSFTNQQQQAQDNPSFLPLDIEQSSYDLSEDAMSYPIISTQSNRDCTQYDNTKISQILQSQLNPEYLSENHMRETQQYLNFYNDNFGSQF
# Assay: PBM E-score (8-mer binding enrichment) (E-score (-0.5 to 0.5)); higher = stronger / more preferred TF binding; most listed sequences are background and not binding sites
# Conditions: protein concentration: 200 nM; construct: GST-full length
# In short: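 E-scores (a modified Wilcoxon-Mann-Whitney statistic) were assigned by the Universal PBM Analysis Suite to every ungapped eight-base word pooled with its reverse complement. The input came from universal all-10-mer Agilent arrays made double-stranded by primer extension and probed with GST-tagged yeast transcription factors at about 100-200 nM. Fluorescent anti-GST detected bound protein, and masliner normalised the scans.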
row,Sequence,PBM E-score
1,CTTTGGTA,-0.0625
2,CCCAAGCG,-0.0427
3,AACTTGTA,0.146
4,GCCCACCA,-0.144
5,GGAGTGTA,-0.113
6,ATTTACCC,0.0198
7,CCCAATAC,-0.00448
8,ACCATAAA,0.166
9,AAGAACCC,-0.185
10,GAGTGTCA,0.0462
11,AGAGTGCA,-0.121
12,TAGACGAA,0.0973
13,ACAGTGGA,-0.0694
14,CGAGCGTA,-0.0631
15,CATAGCTC,-0.194
16,CGATGATA,0.0137
17,CAGATTAC,0.0382
18,ACGATGTA,-0.029
19,CAGGGTCC,-0.201
20,GAGAATCC,0.0868
21,TAAGACTA,0.00596
22,GAATTTGA,-0.026
23,GAAGGGAA,-0.245
24,AACTCGAG,-0.0118
25,CTTAATAC,0.0358

row,Sequence,PBM E-score
1,ACCTCTCC,-0.245
2,CGTCTCAG,-0.0111
3,AAAGATCG,-0.0323
4,TAGCACAA,0.032
5,TGGCGAAA,0.088
6,CTTCAATA,-0.0196
7,GCGTCCAA,-0.00493
8,GTGATAAA,0.164
9,TACGCTCA,-0.0311
10,CAGGGAAG,-0.199
11,CGGAGAAC,-0.184
12,CGATGGCA,0.0536
13,CGCAATAG,0.135
14,ACCGACGG,-0.0181
15,CAATACCC,-0.152
16,TCCGAAGA,0.0567
17,CTGTGTTC,-0.062
18,AACGCATA,0.0564
19,CCCCCGCA,-0.169
20,AGTCACAG,-0.187
21,TTACGCAA,0.15
22,CAGAAAGG,0.0864
23,AACAGTGA,-0.115
24,GTACAGTA,0.013
25,AGGTCATG,-0.226

row,Sequence,PBM E-score
1,GTATCTGA,-0.0545
2,GATCTGTA,-0.138
3,CGGGTGGC,-0.124
4,CCGTGACA,0.0322
5,AGGCTTTG,-0.0165
6,CGTTGTCA,0.0498
7,AAACGTCT,0.0625
8,AAGTGGAT,-0.149
9,CTCCCGGC,-0.164
10,ATGCTCGG,-0.113
11,TTAGTCAA,-0.132
12,AGGTCAGA,-0.306
13,CGATCTGC,-0.0533
14,GCGAGGTA,0.0342
15,GTCGATGA,-0.243
16,GACTGGGC,-0.217
17,ATACGAGA,-0.0267
18,ACGTGGGG,-0.174
19,GAATACTC,-0.0372
20,CAACTGTC,-0.00959
21,ATACTTCC,-0.029
22,CCGAGGCC,-0.22
23,GCGAGTAC,0.0367
24,ATACTTGC,0.11
25,CCTCTAGA,-0.0919

row,Sequence,PBM E-score
1,AGCTTAAT,0.0412
2,CTCTGCTC,-0.178
3,CCTTGTCC,0.037
4,TACGTGGA,0.0688
5,AGTCAGCA,0.199
6,ACAGGGGA,-0.24
7,CGTTGAAG,-0.0287
8,CTAAGCCA,-0.308
9,ATAATAAC,0.217
10,ACTCCACG,0.0239
11,CTGAGTAA,-0.105
12,ATACCCTG,-0.096
13,AGATCAAA,0.0271
14,AGAATAAG,-0.0264
15,CCTGTAGA,-0.0803
16,GCCATCTA,0.00107
17,ACTGCTGA,-0.16
18,AACGCGCA,-0.0475
19,ACAAACCA,-0.00617
20,AAATGAAG,0.0898
21,CACCAGGG,-0.219
22,ACCAAGCT,-0.0176
23,CATGTTGG,-0.0174
24,GGCAATCA,0.109
25,ACGAGTAT,-0.097

row,Sequence,PBM E-score
1,AGTTGGAC,-0.0952
2,CTCCTTGA,-0.229
3,CCGTTAAC,-0.00154
4,GGGCCGCA,0.285
5,AGTCCCAG,-0.258
6,AAAAAATT,0.117
7,CCTGGTGC,0.0925
8,CCAGACGC,-0.15
9,CAACTAAC,0.172
10,ACGCGTGG,0.1
11,CCTATGGA,-0.119
12,GCGGAGGA,-0.175
13,AAACGGAA,0.272
14,ATTCGCCC,-0.0713
15,CAACCGGC,0.134
16,ATTAGCTA,-0.0565
17,ATAGCGCC,0.357
18,CAAGCAGA,0.177
19,ATGTGTAC,-0.00236
20,AGCACTAC,-0.177
21,ATGAGCTG,-0.175
22,AAGTGCCT,0.202
23,ACCCTGCG,-0.156
24,CCAGATAA,0.0105
25,GGCATTTA,0.229

row,Sequence,PBM E-score
1,AAGGTGGG,-0.288
2,AACCTAAC,-0.0483
3,TGCCCAAA,-0.0909
4,GAGTTTAC,-0.0322
5,ACTCCAGT,-0.116
6,CTACTGTC,-0.157
7,ACCAAACG,-0.0326
8,ACTAACAT,0.0936
9,GCCCCTTA,-0.112
10,ACTCTTCG,-0.18
11,GCCCTAAA,-0.0669
12,GCTAACTA,0.169
13,AGTACGAG,-0.0489
14,CGACTTAG,0.0156
15,AACGGCGT,0.448
16,CAGCCGCC,0.0812
17,ACTAGAGC,0.0392
18,ACATAGGA,-0.199
19,GCTCTCGA,-0.144
20,GAGTTCGA,0.0785
21,AATCGGGG,-0.148
22,CGCGGGGC,0.296
23,GCTAGCAA,-0.127
24,AGAAGAAA,0.0201
25,AATATAGC,0.0676

row,Sequence,PBM E-score
1,TACTAGTA,0.158
2,AATTATCG,0.163
3,TGCGCACA,-0.00981
4,ATATTACC,0.178
5,GAGGTCCC,-0.185
6,GACCTACC,-0.168
7,ATTTGAAG,0.00357
8,CGATTACG,-0.0549
9,CGTATTCA,0.215
10,ATATCGAC,0.155
11,AGGTTGAT,-0.324
12,ATACCAGC,-0.18
13,GAGACCAC,-0.139
14,CGATCGGA,-0.0912
15,AGTTTGTA,0.0645
16,CCGACTCA,-0.195
17,CAAGAGTA,-0.0583
18,AAAGCGGG,-0.19
19,AATCGAAA,0.0672
20,CTCATGTA,0.0704
21,GCAACGAC,0.0446
22,CCATTTCA,-0.133
